Test results from US10160756B2 (priority 2014, dated 2018).

Conditions: at the concentrations tested

| Compound | cytotoxicity by MTT assay |
| --- | --- |
| Cc1nn(-c2ccccc2)c(C)c1NC(=O)CN1CCCC(c2nc3ccccc3s2)C1 (centres unmarked) [Compound 4, 2-(3-(benzo[d]thiazol-2-yl)piperidin-1-yl)-N-(3,5-dimethyl-1-phenyl-1H-pyrazol-4-yl)acetamide] | virtually no cytotoxicity |
| Cc1nc2ccccc2nc1SCC(=O)NC(=O)Nc1ccccc1 [Compound 5, 2-((3-methylquinoxalin-2-yl)thio)-N-(phenylcarbamoyl)acetamide] | virtually no cytotoxicity |
